# In the supplement of paper PMC3334620:
# Whole data set: some 33,000 sequences, median “E-score (-0.5 to 0.5)” near -0.056, cut for the highest 2% near 0.38. The list shows a part of the results.
# Molecular target: Stb4 (UniProt P50104)
# Assay: PBM E-score (8-mer binding enrichment) (E-score (-0.5 to 0.5)); higher = stronger / more preferred TF binding; most listed sequences are background and not binding sites
# Details: protein concentration: 200 nM; construct: GST-DNA-binding domain
# How it was run: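 E-scores (a modified Wilcoxon-Mann-Whitney statistic) were assigned by the Universal PBM Analysis Suite to every ungapped eight-base word pooled with its reverse complement. The input came from universal all-10-mer Agilent arrays made double-stranded by primer extension and probed with GST-tagged yeast transcription factors at about 100-200 nM. Fluorescent anti-GST detected bound protein, and masliner normalised the scans.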
row,Sequence,PBM E-score
1,GAGTGTTA,0.0282
2,AAAGTACA,-0.301
3,ACATCCAC,0.0415
4,AGCCGTCC,0.163
5,GGTGCTGA,0.167
6,AAAAATAG,0.0724
7,AATGGTAC,0.039
8,CTATGCGC,-0.0143
9,AGCTCCTA,-0.054
10,TCTCGCAA,0.0202
11,TCTGATCA,-0.0843
12,GAGGGCTA,-0.195
13,GAGCATCA,-0.181
14,AGTAAGCA,-0.155
15,CAACCTTC,-0.0953
16,GCTTTTCC,0.244
17,CGTGGTGA,-0.132
18,CCACACAA,-0.292
19,ACTAGCAA,-0.0688
20,CATCCAGA,-0.199
21,AGCCCACT,-0.216
22,ACCCGATA,0.349
23,CGGCGCGA,0.19
24,CCACGCCA,-0.364
25,GCTGGTAC,0.0995

row,Sequence,PBM E-score
1,ACGCGGAC,0.0769
2,CTTGTAGC,-0.167
3,GTCGTAGA,-0.133
4,AGCCCCCT,-0.312
5,ACGGTGCT,-0.0775
6,CGGCAAGA,0.298
7,CCGGGTCG,0.321
8,GGCACTAA,0.153
9,ACCGGATG,0.385
10,AGGATGAT,-0.193
11,CGACGCGA,0.0647
12,GGCATCCC,-0.00541
13,GGCTCAGA,-0.0626
14,CGAGATCA,0.0931
15,CATTGCCA,0.0541
16,CCACTCCA,-0.146
17,CTTCGGGA,0.439
18,CCGCGTGA,0.121
19,TCAAGCAA,-0.198
20,AGCCGACG,0.353
21,AGTACCTG,-0.265
22,CCATTCTA,-0.163
23,ACTTCGTG,-0.0997
24,ACGCGGCT,0.123
25,AGCTACAT,-0.207

row,Sequence,PBM E-score
1,CGAAAATC,0.0705
2,TATCGTCA,-0.124
3,GATCCGCA,0.316
4,CCCGCATC,0.101
5,CCTGACAA,-0.203
6,CGAACGAC,-0.0483
7,CCAGGGTC,-0.146
8,AGGCTGTC,-0.0996
9,TACGGCAA,0.215
10,AAGCGATT,-0.0187
11,CCATAGTC,-0.171
12,GAATGGTC,0.0599
13,ACAATGGT,-0.216
14,ACCTGTAC,-0.0504
15,ATTCCAGG,-0.129
16,AACCCCAA,-0.0616
17,GATAAGTA,0.0852
18,CCCGTCCA,0.173
19,AGACCTCG,0.162
20,CTATAAGC,-0.04
21,AAGAAAAT,0.142
22,CAGGTACG,0.0561
23,CGCAATCA,-0.00325
24,CATGCGGG,0.0495
25,ATGGCTAC,-0.0728

row,Sequence,PBM E-score
1,CAAGCGTC,-0.111
2,AGGCGGGA,0.0839
3,GAGACATC,0.0952
4,GACTACTA,-0.154
5,GTAACCAA,0.145
6,ACTTTCAA,0.117
7,GATAAGAC,0.0398
8,GACGTAAA,0.112
9,GCCTGCGC,-0.142
10,ACACCGGA,0.312
11,GCTGCGTA,-0.196
12,CAGGTGTA,-0.327
13,GCGCGGAA,0.338
14,GTCCAATA,0.0919
15,GAAGGGCC,-0.00688
16,GAGACGCA,0.0275
17,CAGTGAAC,-0.179
18,CGCGAATA,0.034
19,CAGACGTC,-0.0928
20,CAGAAATC,-0.132
21,ACCCACAG,-0.344
22,CGATTTTA,0.0383
23,CCGTGAAC,0.0835
24,AGAAAATC,0.0513
25,ACGATTTC,0.00914

row,Sequence,PBM E-score
1,AGATCGAT,-0.16
2,CAGCGGGA,0.106
3,AGTCTCTG,-0.0746
4,ATCAAGTC,-0.123
5,ACACACCG,0.0907
6,ACGATCTC,-0.0413
7,AAGAAAAC,0.151
8,ATATCGAA,-0.0617
9,ATACGGAC,0.0382
10,CTATGTCC,0.0466
11,CCTGGTTC,-0.0191
12,AAGGTTCT,-0.0262
13,AGAAGCAT,-0.169
14,CGTAATGC,0.0189
15,AATACCTA,-0.283
16,TCAAGAAA,-0.0248
17,AAAGCGAT,-0.0192
18,CGCTACAG,-0.122
19,ATGCTACC,0.138
20,CACCAAGG,-0.00322
21,GAGAAAAA,0.155
22,TCCGGTAA,0.352
23,ATTCGATA,-0.0679
24,GGAAAAAA,0.269
25,CAAGACGC,0.0175

row,Sequence,PBM E-score
1,AGGAAAAA,-0.063
2,GCCGCAAA,0.0677
3,TATTAGAA,-0.00872
4,ACCCTAAA,0.0491
5,GTATACTA,-0.216
6,GCAGGTAC,0.0062
7,ACCATGGG,-0.175
8,CCCATGGG,0.0295
9,GCTCGGAC,0.391
10,ATTCTTGC,0.101
11,CGTCTGCC,0.0236
12,ACATTTCA,0.0436
13,AATCCCGA,0.431
14,ATAATGCA,-0.16
15,ATAGTTCA,-0.0585
16,GCCGGAAC,0.428
17,ACACCCGG,0.331
18,AGTTGCAT,-0.00988
19,CGTGGAAA,0.0527
20,ACAGCAAA,-0.201
21,CTTGCTCA,-0.202
22,ACATACAT,-0.101
23,AATATGGG,-0.152
24,AGAGCATA,-0.16
25,CGCAGCAC,-0.0429

row,Sequence,PBM E-score
1,CGTTTAGA,-0.0135
2,GAGCGCCA,0.0507
3,ACTCCATA,-0.175
4,ATAGCCGC,0.236
5,CGTCGACC,-0.15
6,ACGGCGCG,0.076
7,CACCGCAG,0.0289
8,GTAGCAAC,-0.0718
9,CACGTTGG,-0.375
10,AACAGGCA,-0.151
11,CTTACACA,-0.127
12,GTCACCCA,-0.111
13,GTCCACAC,0.0281
14,CTGGAATA,-0.00819
15,ACTGAGTA,-0.22
16,GATATATC,0.273
17,AAGACCAG,-0.132
18,AACTACGC,-0.0133
19,GGGTGCCA,0.0454
20,TGCTCCCA,-0.129
21,AGCCACCG,0.0559
22,CTAGGTCC,0.00508
